Assay results: PubChem BioAssay AID1768 (National Center for Advancing Translational Sciences (NCATS), 2009)
About 620 (0.23%) of roughly 270,000 compounds were called active. The shares of active, inactive and inconclusive entries below differ from those in the screen. Calls come from the whole dose curve; as a rule, active = well fitted inhibition curve with a large enough effect in the polarisation, with a control signal flat (not every such curve was filed as active); inconclusive = small, poorly fitted or top-dose-only effect, or effect the other way, or a change in a side signal; inactive = no such curve, though single readings can be large or run the other way; the % refers to the polarisation. A potency beside an inconclusive call is a rough fit, not a confirmed value. A note “side channel” means that the fit belongs to a control or component signal, not to the main read-out.

Molecular target: Menin (Homo sapiens) (UniProt O00255)
Experiment: qHTS Assay for Inhibitors Targeting the Menin-MLL Interaction in MLL Related Leukemias: Competition With Texas Red Labeled MLL-derived Mutant Peptide; for FP activity change, negative = inhibition: % of control where 0% means no effect
Details: fluorescence polarization; FP activity change, negative = inhibition: at 61.6 µM (top of the series)
Potency is the fitted concentration of half-maximal effect; tags give direction and shape of the fitted curve or compound fluorescence and quenching.

UniProt O00255, sequence (O00255 whole entry, looked up): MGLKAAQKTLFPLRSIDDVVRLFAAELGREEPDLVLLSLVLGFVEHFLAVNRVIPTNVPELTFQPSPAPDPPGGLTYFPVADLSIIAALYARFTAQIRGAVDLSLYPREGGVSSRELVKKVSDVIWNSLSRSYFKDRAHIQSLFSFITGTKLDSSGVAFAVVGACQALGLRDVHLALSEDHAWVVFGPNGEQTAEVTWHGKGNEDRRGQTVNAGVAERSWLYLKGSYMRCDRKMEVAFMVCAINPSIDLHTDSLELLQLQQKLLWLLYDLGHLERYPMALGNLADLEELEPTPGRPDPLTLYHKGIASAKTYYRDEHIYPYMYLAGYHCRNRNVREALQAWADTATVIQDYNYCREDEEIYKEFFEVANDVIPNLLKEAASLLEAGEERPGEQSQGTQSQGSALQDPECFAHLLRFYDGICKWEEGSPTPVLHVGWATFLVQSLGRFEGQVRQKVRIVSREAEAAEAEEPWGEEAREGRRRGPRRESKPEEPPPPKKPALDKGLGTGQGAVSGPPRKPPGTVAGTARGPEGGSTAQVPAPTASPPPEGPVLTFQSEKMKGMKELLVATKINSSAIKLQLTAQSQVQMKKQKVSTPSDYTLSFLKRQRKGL

Potency, inactive:
O=C(c1csnn1)N1CCC2(CC1)CN(c1cccc(-c3ccccc3)c1)C2, COc1ccc2c(c1)CCC1C2=NN(/C(C)=C\C(C)=O)C1c1ccc(F)cc1 (configuration not stated), CCCSc1nc(-c2ccccc2)cc(C(F)(F)F)c1C#N, COc1ccc(N2CCN(CC(O)COc3cc(C)cc(C)c3)CC2)cc1 (configuration not stated), O=c1[nH]c2cc3c(cc2cc1C(c1nnnn1C1CCCCC1)N1CCSCC1)OCCO3 (configuration not stated), NC(=O)C1CCN(C(=O)c2cccc(S(=O)(=O)N3CCc4ccccc4C3)c2)CC1, COc1ccc(C2/C=C\CN(C(=O)C3CCCCC3)C(C)C(=O)N2Cc2ccc(F)cc2)cc1 (configuration not stated), COc1ccc(NC(=O)/C=C/c2ccccc2)c([N+](=O)[O-])c1, COc1cc(/C=N/NC(=O)c2[nH]nc3c2CCc2ccccc2-3)ccc1O

Potency, inconclusive:
COc1cc2c(c(OCC(=O)NC(C)C)c1)C(=O)O[C@@H](C)CCCC(=O)CCCCC2 15.8 µM [fluorescent, side channel, partial curve], COc1cccc(Nc2nc3ccccc3nc2NS(=O)(=O)c2cccs2)c1 8.91 µM [quencher, side channel, full curve], COc1ccc(NS(=O)(=O)c2ccc3nc(COc4ccc(Cl)c(C)c4)[nH]c3c2)cc1 39.8 µM [inhibitor, single point], COc1ccc(Cl)cc1Nc1nc(-c2sc(NC(=O)CC(C)C)nc2C)cs1 10 µM [quencher, side channel, partial curve], CCCN1CCN(CCCNC(=O)C2CCCN(c3nc4ccc(OCC)cc4s3)C2)CC1 (configuration not stated) 39.8 µM [inhibitor, single point], CN1C(=O)/C(=C\c2cccc(OCc3ccccc3)c2)SC1=S 39.8 µM [inhibitor, single point], COc1ccc(CNc2ccc3c(c2)ncn3C)cc1OC 10 µM [quencher, side channel, partial curve], CCOc1ccc(NC(=O)C2C(c3ccccc3)C2(Cl)Cl)cc1 (configuration not stated) 14.1 µM [quencher, side channel, single point], COc1cccc(C(=O)c2c[nH]c(C(=O)NCc3cccs3)c2)c1 39.8 µM [inhibitor, single point], OC(COc1cccc2ccccc12)CN1CCN(c2ccccc2)CC1 (configuration not stated) 1.26 µM [inhibitor, full curve, poor fit], Cc1ccc(NC(=S)NNC(=O)c2ccc(N3CCOCC3)c([N+](=O)[O-])c2)cc1Cl 28.2 µM [quencher, side channel, partial curve], FC(F)(F)c1cc(-c2cccs2)nc2cc(-c3ccccc3)nn12 17.8 µM [quencher, side channel, single point], CC(Sc1nc(-c2ccccc2)cc(C(F)(F)F)n1)C(=O)O (configuration not stated) 10 µM [quencher, side channel, partial curve], CCN(CC)C(=O)CC(c1ccc(OC)cc1)c1c(OC)cc(OC)c2ccc(=O)oc12 (configuration not stated) 3.55 µM [fluorescent, side channel, single point], Cc1ccc(O)c(N=Cc2cc(Cc3ccccc3)cc([N+](=O)[O-])c2O)c1 20 µM [quencher, side channel, partial curve], O=C(COC(=O)c1cccc(S(=O)(=O)N2CCc3ccccc3C2)c1)NCc1ccco1 39.8 µM [quencher, side channel, single point], O=C(NCc1ccco1)c1cc2cc3ccc(Cl)cc3nc2o1 2.82 µM [inhibitor, full curve, poor fit], Fc1ccc2[nH]c3c(N4CCN(c5ccccc5)CC4)ncnc3c2c1 15.8 µM [quencher, side channel, partial curve], COc1ccccc1N(CC(=O)N/N=C/c1c(O)ccc2ccccc12)S(C)(=O)=O 28.2 µM [quencher, side channel, partial curve], CCOc1ccc(NC(=O)c2cc3ccccc3cc2O)cc1 20 µM [quencher, side channel, partial curve], O=c1oc2ccccc2c(O)c1C=NCc1ccccn1 7.08 µM [inhibitor, full curve], Cc1ccc(C)c(NC(=O)CSc2nnc(NC(=O)C3CC3)s2)c1 39.8 µM [fluorescent, side channel, single point], COc1cccc(N2CCN(Cc3nnnn3C3CCCCC3)CC2)c1 39.8 µM [inhibitor, single point], O=C(CNC(=O)C12CC3CC(CC(C3)C1)C2)NC1=NCCS1 12.6 µM [inhibitor, partial curve], COCCN=c1scc(-c2cc(OC)c(OC)c(OC)c2)n1/N=C/c1c(C)[nH]c2ccccc12 8.91 µM [quencher, side channel, partial curve], CC1(C)OC(C(O)(c2cc(F)c(F)c(F)c2)c2cc(F)c(F)c(F)c2)C(C(O)(c2cc(F)c(F)c(F)c2)c2cc(F)c(F)c(F)c2)O1 (configuration not stated) 3.16 µM [inhibitor, partial curve], CC(C)Cc1ccc(/C=C/C(=O)N2CCCCC2)cc1 6.31 µM [fluorescent, side channel, full curve], Nc1ccc(-c2nc3c(Cl)cc(N)cc3[nH]2)cc1 28.2 µM [quencher, side channel, single point], O=C1CC(=O)Nc2cc(S(=O)(=O)N3CCN(c4ccc([N+](=O)[O-])cc4)CC3)ccc2N1 28.2 µM [quencher, side channel, single point], COC(=O)c1ccccc1NC(=O)COC(=O)c1ccco1 31.6 µM [quencher, side channel, single point], COC(=O)c1ccc(NC(=O)Nc2cccc(F)c2)cc1 11.2 µM [quencher, side channel, partial curve], O=C(NC(Cc1c[nH]c2ccccc12)C(=O)O)/C(=C/c1ccc2c(c1)OCO2)NC(=O)c1ccccc1 (configuration not stated) 31.6 µM [quencher, side channel, single point], CCOc1ccccc1-c1nc(-c2ccc(NC(=O)c3ccc(Br)o3)cc2)no1 10 µM [quencher, side channel, partial curve], Cc1[nH]c2ccccc2c1CCN(Cc1cccnc1)C(=S)Nc1cccc(F)c1 28.2 µM [quencher, side channel, partial curve], C=Cc1c(C)/c2[n-]/c1=C\c1[n-]c(c(CC)c1C)/C=c1\[n-]c3c(c1C)C(=O)C(C(=O)[O-])C=3c1[n-]c(c(C)c1CCC(=O)[O-])\C=2.[Cu].[Na+].[Na+] (configuration not stated) 10 µM [quencher, side channel, full curve], O=C(/C=C/c1ccco1)Nc1sc2c(c1C(=O)O)CCC2 17.8 µM [quencher, side channel, partial curve], c1cc(-c2cccs2)nc(-c2cccs2)c1 22.4 µM [quencher, side channel, partial curve], CC1CCN(C2=NN3C(=N)/C(=C\c4ccc(OC(=O)c5ccco5)cc4)C(=O)N=C3S2)CC1 28.2 µM [quencher, side channel, partial curve], N#Cc1cc2c(nc1SCC(=O)Nc1nccs1)CCCCC2 31.6 µM [inhibitor, single point], C=CCc1ccc(OCCOCCOc2cccc3cccnc23)c(OC)c1 14.1 µM [fluorescent, side channel, partial curve], C[N+](C)(C)CCC(=O)c1cccc2ccccc12 31.6 µM [fluorescent, side channel, single point], CC(C)CC(=O)N1CCN(C(=O)c2ccc(-c3ccccc3)cc2)CC1 25.1 µM [inhibitor, single point], CN(C)CCCN(C(=O)c1ccc(S(=O)(=O)N2CCc3ccccc3C2)cc1)c1nc2ccc(F)cc2s1 3.16 µM [fluorescent, side channel, full curve], CCCCCC(O)(c1ccc(OCC)cc1)C(CN1CCOCC1)c1ccccc1 (configuration not stated) 7.94 µM [fluorescent, side channel, partial curve], CCOC(=O)c1c(C)oc2c1cc(O)c1ccccc12 17.8 µM [quencher, side channel, single point], CCN(C(=S)Nc1cc(S(=O)(=O)N2CCOCC2)ccc1Cl)c1cccc2ccccc12 31.6 µM [quencher, side channel, single point], C=CCn1c(=O)c(C(=O)Nc2ccccc2O)c(O)c2ccccc21 12.6 µM [quencher, side channel, partial curve]

FP activity change, negative = inhibition, inactive:
CCCC[C@@H]1CN2[C@H](c3ccc(Br)cc3)[C@@H](C)CC[C@H]2C(=O)O1 -6.95% [at 11.7 µM]
